Results on nine compounds are retold here after patent US20180021277A1, “ANTI-VIRULENCE COMPOSITIONS AND METHODS” (priority 2012, published 2018).

Data set [1] concerns MRSA strain USA300. The conditions noted are these: for inhibition of rabbit blood hemolysis compared to diflunisal: 1 μg/mL.
Data set [2] relates to MRSA strain USA300. The data set can be described thus: microbe, parasite or virus in culture. The conditions noted are these: Staphylococcus aureus, MRSA|USA300, Erythrocyte, in Oryctolagus cuniculus, DMSO control = 100; for hemolysis at 1 µg/mL: 1 μg/mL compound; for hemolysis at 10 µg/mL: 10 μg/mL compound.
In data set [3] the test system is MRSA strain USA300. The data set can be described thus: microbe, parasite or virus in culture. The format is cell-based, Staphylococcus aureus. The conditions noted are these: for activity at 1 µg/mL / activity at 10 µg/mL: read-out: Growth.
Data set [4] relates to MRSA strain USA300. The data set is described as follows: Survival of insect larvae injected with MRSA. The class given is in vivo, Galleria Mellonella. The conditions noted are these: F12 20 mg/kg every 6 hours; 12 h without. As for the experimental part:
FIG. 6 illustrates MRSA Survival curves of insect larvae (Galleria Mellonella) in the presence compound F12 and cephalothin.
Cephalothin is a cephalosporin β-lactam antibiotic to which MRSA is resistant, as shown in the solid black curve. Administration of compound F12 at 20 mg/kg increased the survival from 12 to 42 h (broken line). Combination of F12 (20 mg/kg) with cephalothin (30 mg/kg) further increased survival to 84 h (solid broken line).

Data set [5] relates to MRSA strain USA300. The data set is described as follows: RT-qPCR of virulence gene transcription in MRSA. On the technique in general: Real-time PCR tracks product formation cycle by cycle.
Setting [6] is: 10 μg/mL compound, DMSO control = 100.

As for `CCCc1cc(C(=O)COc2ccccc2C)c(O)cc1O` [4e-9], in the data set on MRSA strain USA300 [1], the “inhibition of rabbit blood hemolysis compared to diflunisal” value (shortened to “inhibition … compared to diflunisal”) is listed as “greater inhibition of rabbit blood hemolysis”. Also, in the data set on MRSA strain USA300 [2], the hemolysis at 1 µg/mL was determined as 20.3 ± 3% and the hemolysis at 10 µg/mL was -0.4%. In the data set with MRSA strain USA300 [3] (Staphylococcus aureus), the activity at 1 µg/mL is 100% and the activity at 10 µg/mL was 2.2%.
Turning to `CCCc1cc(C(=O)COc2ccc(F)cc2)c(O)cc1O` [4e-6], the “inhibition … compared to diflunisal” value in the data set with MRSA strain USA300 [1] is on record as “greater inhibition of rabbit blood hemolysis”. Also, in the data set on MRSA strain USA300 [2], the hemolysis at 1 µg/mL amounted to 34.2 ± 3.2% and the hemolysis at 10 µg/mL was 1.1 ± 0.1%. Moreover, in the data set on MRSA strain USA300 [3] (Staphylococcus aureus), the activity at 1 µg/mL is 101% and the activity at 10 µg/mL came to 78.3%.
Turning to `CCCc1cc(C(=O)COc2cc(F)cc(F)c2)c(O)cc1O` [4e-15], the “inhibition … compared to diflunisal” value with MRSA strain USA300 [1] is listed as “greater inhibition of rabbit blood hemolysis”. Further, in the data set on MRSA strain USA300 [2], the hemolysis at 1 µg/mL was found to be 11.9 ± 0.5% and the hemolysis at 10 µg/mL is -1.8 ± 0.1%. In addition, in the data set with MRSA strain USA300 [3] (Staphylococcus aureus), the activity at 1 µg/mL was found to be 103% and the activity at 10 µg/mL was determined as 80%.
Take `CCCCCCc1cc(C(=O)COc2ccc(F)cc2F)c(O)cc1O` [4f-12]: the “inhibition … compared to diflunisal” value in the data set on MRSA strain USA300 [1] is recorded as “greater inhibition of rabbit blood hemolysis”. The “inhibition of hemolysis of rabbit erythrocytes” value in the data set with MRSA strain USA300 [1] (1 μg/ml, listed as F12) stood at 98%. In the data set with MRSA strain USA300 [2], the hemolysis at 1 µg/mL came out at 1.9 ± 0.1% and the hemolysis at 10 µg/mL is -2.5 ± 0.1%. For the same compound, in the data set with MRSA strain USA300 [3] (Staphylococcus aureus), the activity at 1 µg/mL amounted to 73.3% and the activity at 10 µg/mL came to 15.4%. Moreover, the inhibition (commonly the percentage by which the read-out fell short of the control) at 1 µg/mL in the data set on MRSA strain USA300 [3] (Staphylococcus aureus, read-out: inhibition of bacterial growth) is 26.7%. The survival of larvae in the data set with MRSA strain USA300 [4] amounted to 42 h.
For the compound `CCCc1cc(C(=O)COc2ccccc2F)c(O)cc1O` [4e-5], the “inhibition … compared to diflunisal” value in the data set on MRSA strain USA300 [1] was “greater inhibition of rabbit blood hemolysis”. Moreover, in the data set on MRSA strain USA300 [2], the hemolysis at 1 µg/mL was determined as 36.4 ± 1.9% and the hemolysis at 10 µg/mL amounted to 0.4%. In the data set with MRSA strain USA300 [3] (Staphylococcus aureus), the activity at 1 µg/mL was found to be 101% and the activity at 10 µg/mL was 63.9%.
On to `CCCc1cc(C(=O)COc2ccc(C(C)(C)C)cc2)c(O)cc1O` [4e-20], for which the “inhibition … compared to diflunisal” value in the data set on MRSA strain USA300 [1] is recorded as “greater inhibition of rabbit blood hemolysis”. In the data set on MRSA strain USA300 [2], the hemolysis at 1 µg/mL is 7.1 ± 0.1% and the hemolysis at 10 µg/mL is -1.6 ± 0.1%. In the data set with MRSA strain USA300 [3] (Staphylococcus aureus), the activity at 1 µg/mL was found to be 89.1% and the activity at 10 µg/mL turned out to be 2.6%.
On the same counts, the results for `CCCc1cc(C(=O)COc2ccc(F)cc2F)c(O)cc1O` [4e-12] are “greater inhibition of rabbit blood hemolysis”, 14.4 ± 0.4%, 1.1 ± 0.1%, 100% and 54.2%.
In the same order, the values of `CCCc1cc(C(=O)COc2ccc(F)c(F)c2)c(O)cc1O` [4e-14] are “greater inhibition of rabbit blood hemolysis”, 9.6 ± 2.2%, -3 ± 0.1%, 107% and 64.9%.
Turning to `CCCCCCc1cc(C(=O)COc2ccc(C(C)C)cc2)c(O)cc1O` [4f-19], in the data set on MRSA strain USA300 [1] (setting [6]), the Hemolysis was 62.0 ± 14.5%. The “expression of virulence genes” value in the data set on MRSA strain USA300 [5] (10 μg/mL F19) is recorded as “more moderate decrease”. In the data set with MRSA strain USA300 [5] (50 μg/ml F19), the “expression of RNAIII” value was “only moderately reduced”, the expression of hla entry is recorded as “reduced”, the “expression of psm-α” value is listed as “reduced” and the “expression of surface protein A (spa)” value was “only moderately reduced”. Also, the Growth in the data set with MRSA strain USA300 [3] (setting [6]) is reported as 92.7%.
